Reference: PubChem BioAssay AID1460 (National Center for Advancing Translational Sciences (NCATS), 2008)
Where “and” joins values, the source holds several entries; their conditions need not be identical. Identical values can stand only once. Out of some 270,000 compounds screened, about 5,800 (2.1%) were called active. Inconclusive results, whose numbers are uncertain, are shown with a selection of clear calls. Calls come from the whole dose curve; as a rule, active = well fitted inhibition curve with a large enough effect; inconclusive = small, poorly fitted or top-dose-only effect; inactive = flat fitted curve, though single readings scatter. Potencies beside an inconclusive call are fits to weak or partial responses and may not hold up.
% is set by controls: 0 for no effect and ±100 for the full control effect; potency is the fitted concentration of half-maximal effect; tags give direction and shape of the fitted curve.
Note: nearly all actives have a fitted effect of over 55% in size.

The molecules below were run against Microtubule-associated protein tau (Homo sapiens) (UniProt P10636) (assay: qHTS for Inhibitors of Tau Fibril Formation, Thioflavin T Binding). Conditions: recombinant tau K18 P301L, heparin-induced fibrillization, ThT fluorescence; series mostly up to 57.4 µM; activity, negative = inhibition: at the top concentration.
UniProt P10636, sequence (P10636 whole entry, looked up): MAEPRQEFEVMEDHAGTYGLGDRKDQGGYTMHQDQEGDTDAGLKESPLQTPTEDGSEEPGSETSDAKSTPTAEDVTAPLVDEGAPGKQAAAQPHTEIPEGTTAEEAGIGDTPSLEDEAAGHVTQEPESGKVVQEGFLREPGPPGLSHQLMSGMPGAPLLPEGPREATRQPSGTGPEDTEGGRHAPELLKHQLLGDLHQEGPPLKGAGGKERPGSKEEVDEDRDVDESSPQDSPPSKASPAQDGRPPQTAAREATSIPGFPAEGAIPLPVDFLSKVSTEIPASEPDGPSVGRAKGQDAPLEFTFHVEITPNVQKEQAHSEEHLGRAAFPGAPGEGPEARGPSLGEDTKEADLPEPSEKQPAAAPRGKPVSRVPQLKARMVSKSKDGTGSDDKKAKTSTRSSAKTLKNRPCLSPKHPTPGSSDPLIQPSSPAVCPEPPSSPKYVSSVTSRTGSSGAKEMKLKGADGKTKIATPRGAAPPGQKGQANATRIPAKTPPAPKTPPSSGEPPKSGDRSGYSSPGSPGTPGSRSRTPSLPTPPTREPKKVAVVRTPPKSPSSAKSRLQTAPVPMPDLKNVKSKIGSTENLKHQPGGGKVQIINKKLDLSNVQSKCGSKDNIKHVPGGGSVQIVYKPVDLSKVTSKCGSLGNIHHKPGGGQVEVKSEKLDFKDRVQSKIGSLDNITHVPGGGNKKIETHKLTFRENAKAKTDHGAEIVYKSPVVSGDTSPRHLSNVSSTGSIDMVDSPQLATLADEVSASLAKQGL
Method in brief: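 Using a mix of unlabeled (15 uM) and Alexa 594-labeled (0.24 uM) tau K18 P301L, heparin-triggered fibrillization over 6 hr at 37 C was scored by ThT fluorescence.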
CCCCCCC#Cc1ccc2c(c1)COc1c3ccccc3nn1-2 was tested, and the Potency was inconclusive: 3.98 µM [inhibitor, partial curve]. In the case of COc1ccc(-c2ccc(SC)nn2)cc1, the Potency is reported as inconclusive: 11.2 µM [inhibitor, partial curve]. For CCN(C(=O)c1cccs1)c1nc(-c2ccc(OC)cc2)cs1, the Potency was inconclusive: 5.62 µM [inhibitor, partial curve]. For CCOC(=O)CSC1=C(C#N)C(c2sccc2C)C(C(C)=O)=C(C)N1 (stereo unspecified), the Potency was inconclusive: 39.8 µM [inhibitor, single point]. In the case of COc1ccccc1NC(=O)CSc1nnc(COc2ccc(Cl)cc2)n1Cc1ccco1, the Potency is reported as inconclusive: 25.1 µM [inhibitor, single point]. With Cc1ccccc1C(=O)Oc1cc(N)n(S(C)(=O)=O)n1 the Potency was inconclusive: 15.8 µM [inhibitor, single point]. In the case of c1ccc(-c2n[nH]c3c2oc2ccccc23)cc1, the “activity, negative = inhibition” value is reported as inactive: -9.77%. For CC(C)OC(=O)/C(=C/c1ccco1)c1ccccc1, the “activity, negative = inhibition” value was inactive: -1.68%. In the case of CN(C)c1cccc(C(=O)OCc2cc(=O)oc3cc(O)ccc23)c1, the Potency is reported as inconclusive: 15.8 µM [inhibitor, partial curve]. In the case of Cc1cc2c(c(=O)o1)C(c1ccc([N+](=O)[O-])o1)C(C#N)=C(N)O2 (stereo unspecified), the Potency is reported as active: 14.1 µM. COCCn1c(SCC(=O)Nc2ccccc2OC)nc2c(oc3ccccc32)c1=O was tested, and the “activity, negative = inhibition” value was inactive: -9.46%. For CCOc1ccc(-c2cc(CCCC(=O)NCCCOC)no2)cc1, the Potency was inconclusive: 11.2 µM [inhibitor, partial curve]. For CC1CCN(C(c2ccc(F)cc2)c2sc3nc(-c4ccco4)nn3c2O)CC1 (stereo unspecified), the “activity, negative = inhibition” value was inactive: -1.7%. C/C(=N\NC(=O)c1ccccc1O)c1cccs1 was tested, and the Potency was inconclusive: 15.8 µM [inhibitor, partial curve, poor fit]. CC(=O)c1ccc(N2Cc3ccccc3/C2=N\C(=O)Nc2ccc(Cl)cc2)cc1 was tested, and the “activity, negative = inhibition” value was inactive: -12.5%. In the case of O=S(=O)(c1ccc2ccccc2c1)N1CCC(c2nc(-c3ccncc3)no2)CC1, the “activity, negative = inhibition” value is reported as inactive: 4.61%. In the case of COc1ccc(C(=O)Nc2nc(-c3ccc(Br)cc3)ns2)cc1, the Potency is reported as inconclusive: 1.12 µM [inhibitor, full curve, poor fit]. Cc1csc2nc(COc3ccc(NC(=O)c4ccccc4F)cc3)cc(=O)n12 was tested, and the Potency was inconclusive: 0.708 µM [inhibitor, full curve, poor fit]. CN(C)C(CNc1ncnc2sc3c(c12)CCCCC3)c1ccco1 (stereo unspecified) was tested, and the Potency was inconclusive: 11.2 µM [inhibitor, partial curve, poor fit]. COC(=O)CN1C(=O)C(O)(c2c(C)[nH]c3ccccc23)c2ccccc21 (stereo unspecified) was tested, and the “activity, negative = inhibition” value was inactive: 4%. For CCCn1c2ccccc2c2cnn(CC(=O)NCC3CCN(Cc4ccccc4C)CC3)c(=O)c21, the “activity, negative = inhibition” value was inactive: 3.45%. With Cc1cc(C(=O)CCl)c(C)n1Cc1ccco1 the Potency was inconclusive: 15.8 µM [inhibitor, single point]. For CCOC(=O)c1sc2nc(-c3cccnc3)ccc2c1N, the Potency was inconclusive: 17.8 µM [inhibitor, partial curve]. For COc1cccc2[nH]c3c(N4CCC5(CC4)OCCO5)ncnc3c12, the Potency was inconclusive: 28.2 µM [inhibitor, partial curve, poor fit]. COc1ccc(-c2[nH]c(-c3ccc(C)cc3)nc2SCC(=O)Nc2nccs2)cc1 was tested, and the Potency was inconclusive: 39.8 µM [inhibitor, single point]. In the case of CCOCCc1nn2c(=O)cc(COC(=O)c3ccc(NC(=O)c4cccs4)cc3)nc2s1, the “activity, negative = inhibition” value is reported as inactive: 16.3%. In the case of CCc1oc2ccccc2c1C(=O)c1cc(Br)c(O)c(Br)c1, the Potency is reported as inconclusive: 20 µM [inhibitor, partial curve]. Cc1ccc2c(c1)c1c3n2CCN=C3CCC1 was tested, and the Potency was inconclusive: 3.16 µM [inhibitor, partial curve, poor fit]. In the case of O=S(=O)(Nc1ccc2c(c1)OCO2)c1cccs1, the “activity, negative = inhibition” value is reported as inactive: -5.05%. For CC1SC(=NC(=O)C(C)N2C(=O)c3ccccc3C2=O)NC1=O (stereo unspecified), the Potency was inconclusive: 35.5 µM [inhibitor, single point]. With O=S(=O)(CC(CN1CCCCC1)N1CCCCC1)c1ccc2ccccc2c1 (stereo unspecified) the Potency was inconclusive: 8.91 µM [inhibitor, full curve]. Cn1nnnc1SCC(=O)N1CCN(S(=O)(=O)c2ccc(Cl)cc2)CC1 was tested, and the “activity, negative = inhibition” value was inactive: 4.57%. With CCCCC(CC)Cn1c(N)c(C#N)c2nc3ccccc3nc21 (stereo unspecified) the Potency was inconclusive: 28.2 µM [inhibitor, partial curve, poor fit]. In the case of Cc1cc(S(=O)(=O)Nc2cc3c(cc2N2CCOCC2)n(C)c(=O)c(=O)n3C)ccc1F, the “activity, negative = inhibition” value is reported as inactive: -8.67%. For CC/C(=C(\c1ccccc1)c1ccc(OCCN(C)C)cc1)c1ccccc1, the Potency was inconclusive: 12.6 µM [inhibitor, partial curve] and inconclusive: 25.1 µM [inhibitor, partial curve]. For CCCC1=Nc2cc(C(=O)NCc3ccccc3)ccc2Sc2ccccc21, the “activity, negative = inhibition” value was inactive: -13.9%. In the case of COc1ccc(NC(=O)c2cccc3c(=O)c4c([nH]c23)CCCC4)cc1, the Potency is reported as inconclusive: 4.47 µM [inhibitor, partial curve]. For CCOC(=O)c1[nH]c(C)c(CCC(=O)N2CCN(c3ccc(OC)cc3)CC2)c1C, the “activity, negative = inhibition” value was inactive: -3.71%. COc1ccc(OC)c(C2CC(=O)N3CN(c4cccc(Cl)c4)CSC3=C2C#N)c1 (stereo unspecified) was tested, and the Potency was active: 28.2 µM. In the case of COc1ccc(C(C)=O)cc1CSc1nnc(Nc2ccccc2)s1, the “activity, negative = inhibition” value is reported as inactive: -10.2%. CCOC(=O)C1CCN(C(=O)C2CCN(S(=O)(=O)c3c(C)noc3/C=C/c3ccc(C)cc3)CC2)CC1 was tested, and the “activity, negative = inhibition” value was inactive: -19.9%. With COc1ccc(-c2cnnc(N/N=C/C(C)=C/c3ccccc3)n2)cc1 the Potency was inconclusive: 3.16 µM [inhibitor, partial curve]. In the case of Cc1cccc(C)c1OCc1nnc2c3cnn(C)c3ncn12, the Potency is reported as inconclusive: 28.2 µM [inhibitor, single point]. For COc1ccc(OC)c(N/C=C/C(=C(C#N)C#N)N(C)C)c1, the “activity, negative = inhibition” value was inactive: -17.5%. In the case of CCOCCCN1C(=O)CN(C2CCCCCC2)C(=O)C1c1ccc(OCC)c(OC)c1 (stereo unspecified), the “activity, negative = inhibition” value is reported as inactive: -8.21%. With CCCCC(=O)Nc1ccc(NC(=S)NC(=O)CCCCl)cc1OC the “activity, negative = inhibition” value was inactive: 0.493%. COc1nc(-c2ccccc2)ccc1-c1noc(-c2ccccc2)n1 was tested, and the Potency was inconclusive: 7.08 µM [inhibitor, full curve]. In the case of Cc1ccc(-n2ncc3c(Nc4ccc5c(c4)OCCO5)ncnc32)cc1Cl, the Potency is reported as inconclusive: 2.24 µM [inhibitor, full curve]. In the case of CCOc1ccc(C2c3c(oc4cc(C)c(C)cc4c3=O)C(=O)N2CCCN(C)C)cc1OC (stereo unspecified), the “activity, negative = inhibition” value is reported as inactive: -20.6%. COc1ccc(NC(=O)Cn2c(=O)c3cccn3c3ccccc32)cc1 was tested, and the “activity, negative = inhibition” value was inactive: -9.25%. With CN1C(=O)CC(Nc2cccc3cccc(N)c23)C1=O (stereo unspecified) the Potency was inconclusive: 2.82 µM [inhibitor, full curve]. In the case of COc1ccc(CCNc2ncnc3c2c(-c2ccccc2)cn3-c2cccc(Cl)c2)cc1OC, the “activity, negative = inhibition” value is reported as inactive: -3.67%. For Cc1cc(Nc2ccccc2)n(-c2nc3ccccc3[nH]2)n1, the Potency was inconclusive: 39.8 µM [inhibitor, single point]. For Cc1c(Br)c([N+](=O)[O-])nn1CC(=O)N1CCN(Cc2ccccc2)CC1, the Potency was inconclusive: 11.2 µM [inhibitor, partial curve]. With Cc1csc2nc(CSc3nc4ccccc4o3)c(Br)n12 the Potency was inconclusive: 15.8 µM [inhibitor, partial curve]. For Cc1c(C(=O)NCCc2ccccc2)cccc1-n1cnc2cccnc21, the “activity, negative = inhibition” value was inactive: 0.567%. In the case of CCOc1ccc(C(=O)NCCC2=CCCCC2)cc1OCC, the “activity, negative = inhibition” value is reported as inactive: -7.09%. In the case of COc1cc(C2CC(=O)Oc3c(C(CCN4CCCC(C)C4)c4ccc(N(C)C)cc4)c(OC)cc(OC)c32)cc(OC)c1OC (stereo unspecified), the Potency is reported as inconclusive: 25.1 µM [inhibitor, single point]. With CCCc1cc(=O)[nH]c(SCC(=O)Nc2ncc(S(=O)(=O)c3ccc([N+](=O)[O-])cc3)s2)n1 the “activity, negative = inhibition” value was inactive: -6.88%. CN1CCN(C(=O)CCN2C(=O)/C(=C/c3ccccc3Cl)SC2=S)CC1 was tested, and the Potency was inconclusive: 31.6 µM [inhibitor, single point]. For CN(C)c1ccc(C(CNS(=O)(=O)c2ccc(F)c(F)c2)c2c[nH]c3ccccc23)cc1 (stereo unspecified), the “activity, negative = inhibition” value was inactive: 4.23%. In the case of COc1ccccc1N1CCN(S(=O)(=O)CCNC(=O)COc2ccc(F)cc2)CC1, the “activity, negative = inhibition” value is reported as inactive: -9.39%. With C#C[C@]1(O)CC[C@H]2[C@@H]3CCC4=C(CCC(=O)C4)[C@H]3CC[C@@]21C the Potency was inconclusive: 39.8 µM [inhibitor, single point]. For CC(=O)c1ccc(OCCOc2ccc(Cl)c3cccnc23)cc1, the Potency was inconclusive: 5.01 µM [inhibitor, single point]. For O=C(O)c1cccc(CN2C(=O)S/C(=C/c3ccccc3[N+](=O)[O-])C2=O)c1, the Potency was inconclusive: 25.1 µM [inhibitor, partial curve]. For Cc1ccc(-c2cc(C(=O)Nc3nn[nH]n3)c3ccccc3n2)cc1, the “activity, negative = inhibition” value was inactive: -1.16%. C=C(C)COc1ccc(-c2n[nH]c(C)c2Oc2ccccc2OC)c(O)c1 was tested, and the Potency was inconclusive: 4.47 µM [inhibitor, full curve]. In the case of Cc1ccc(C)c(N2CCN(C(=O)c3ccc(CS(=O)(=O)c4ccccc4C)o3)CC2)c1, the Potency is reported as inconclusive: 14.1 µM [inhibitor, partial curve]. With CC(C)(C)c1ccc(OCC(=O)NCc2ccco2)c(Br)c1 the Potency was inconclusive: 25.1 µM [inhibitor, partial curve]. COC(=O)C1=C(C)OC(N)=C(C#N)C1c1ccc(OC)c(CSc2ccccn2)c1 (stereo unspecified) was tested, and the Potency was inconclusive: 22.4 µM [inhibitor, partial curve, poor fit]. In the case of COc1ccc(C(=O)NCc2nnc(SCC(=O)N3CCCCC3)o2)cc1OC, the “activity, negative = inhibition” value is reported as inactive: -5.11%.
